# Assay results: PubChem BioAssay AID686978 (National Center for Advancing Translational Sciences (NCATS), 2013)
# “And” between values parts separate entries of the source, which are not always exact repeats. Identical values can stand only once. Among all 420,000 compounds or so, about 64,000 (15%) were called active. The shares of active, inactive and inconclusive entries below differ from those in the screen. Calls follow the shape of the dose curve; as a rule, active = well fitted inhibition curve with a large enough effect; inconclusive = small, poorly fitted or top-dose-only effect; inactive = flat fitted curve, though single readings scatter. Potencies of inconclusive entries are doubtful fits and often do not repeat.
# Experiment: qHTS for Inhibitors of human tyrosyl-DNA phosphodiesterase 1 (TDP1): qHTS in cells in absence of CPT; also: nearly all actives have a fitted effect of over 55% in size
# Settings: DT40 Tdp1-/- hTDP1 cells, no CPT, ATP luminescence, 48 h; activity change, negative = growth inhibition: at 46.2 µM (top of the series)
# In short: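 Chicken DT40 Tdp1-/- cells stably complemented with human TDP1 were seeded at 400 cells/well with DMSO in place of 20 nM camptothecin. After compound pinning, cells grew at least 48 hr at 37 °C; viability read by CellTiter-Glo luminescence.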
# % is scaled to controls: 0 for no effect and ±100 for the full control effect; potency is read from the fitted curve at half-maximal effect; tags tell the direction and shape of the fitted curve.
SMILES,Potency,"activity change, negative = growth inhibition"
COc1ccc(-n2nc([N+](=O)[O-])c(=NCCc3ccc(OC)c(OC)c3)n2O)cc1,active: 20.6 µM,
CCN(CC)C(=O)C1=C(C)N(Cc2ccccc2)C(=O)C(CC(=O)NCCN2CCOCC2)C1 (stereo not given),,inactive: -14.6%
COc1ccc(OCc2ccc(-c3nc(C#N)c(N4CCCCC4)o3)o2)cc1,"inconclusive: 18.4 µM [inhibitor, single point]",
COc1ccc2sc(N(CCCN(C)C)C(=O)c3ccc(S(=O)(=O)N4CCCc5ccccc54)cc3)nc2c1,active: 16.4 µM,
CS(=O)(=O)N1CCN(CCN2C(=O)c3cccc4cccc(c34)C2=O)CC1,"inconclusive: 29.1 µM [inhibitor, single point]",
CCCOC(=O)c1ccc(Oc2cn[nH]c2-c2ccc(OC)cc2O)cc1,active: 20.6 µM,
CCS(=O)(=O)Nc1cccc(-c2ccc3nnc(-c4cccnc4)n3n2)c1,"inconclusive: 8.2 µM [inhibitor, partial curve]",
Cc1ccc(NC(=O)Cn2nc(N3CCN(c4ccccc4)CC3)ccc2=O)cc1F,"inconclusive: 29.1 µM [inhibitor, single point]",
O=C(NNC(=O)c1cccc(-n2cccc2)c1)c1ccc(F)cc1,"inconclusive: 29.1 µM [inhibitor, single point]",
CC(NCCC1(C(C)C)CCOC(C)(C)C1)c1cccs1 (stereo not given),"inconclusive: 29.1 µM [inhibitor, single point]",
Cc1ccccc1C(=O)NC(=S)Nc1ccc(Cc2ccncc2)cc1,"inconclusive: 29.1 µM [inhibitor, single point]",
Cn1cc([C@@H]2C[C@H]3CN(Cc4cccc(Cl)c4)C(=O)[C@]34CCCN24)c(-c2ccccc2)n1,"inconclusive: 25.9 µM [inhibitor, single point]",
CCn1c(=NC(=O)CSC(C)=O)sc2cc(OC)ccc21,"inconclusive: 18.4 µM [inhibitor, single point]",
N#C/C(=C\c1ccc(-c2cccc([N+](=O)[O-])c2)o1)C(=O)Nc1nc(-c2cccs2)cs1,"inconclusive: 10.3 µM [inhibitor, partial curve]",
COc1ccc(-n2c(=O)c3sc4ccccc4c3n(Cc3ccccc3C)c2=O)cc1OC,,inactive: -3.25%
Cc1c(C(=O)N(C)C)sc2c1c(=O)n(-c1ccc(Cl)cc1)c(=O)n2CC(=O)C(C)(C)C,"inconclusive: 1.3 µM [inhibitor, full curve, poor fit]",
COc1ccc(C(=O)c2c(N)c(C(=O)Nc3cccc(OC)c3)c3ccccn23)cc1,,inactive: -26.8%
COc1cc(C2NC(=S)NC(C)=C2C(=O)OC(C)C)ccc1OC(C)C (stereo not given),"inconclusive: 29.1 µM [inhibitor, single point]",
Cc1ccc(/C=C(\NC(=O)c2ccccc2)C(=O)N2CCCC2C(=O)O)cc1 (stereo not given),,inactive: 16.3%
CCCCOc1ccc(Br)cc1/C(C)=N/NC1=NCCN1,active: 4.11 µM,
COc1cccc(C(c2c(NC(=O)c3ccccc3)sc(C)c2C)N2CCN(C)CC2)c1 (stereo not given),"inconclusive: 18.4 µM [inhibitor, single point]",
COc1ccc(CNC(=O)c2cc3c(C)nc4ccccc4c3o2)c(OC)c1,active: 13 µM,
O=C(Nc1nccs1)c1cccc(NC(=O)c2ccco2)c1,"inconclusive: 11.6 µM [inhibitor, partial curve]",
CC(=O)Nc1cc(-c2ccccc2)cn2c(-c3cccc(C(C)=O)c3)cnc12,active: 10.3 µM,

SMILES,Potency,"activity change, negative = growth inhibition"
c1ccc(Cn2ncc3c(N4CCN(c5ccccc5)CC4)ncnc32)cc1,active: 16.4 µM,
O=C(NC1=NCCS1)c1ccc(Cl)c(Cl)c1,,inactive: -0.456%
COc1ccc(S(=O)(=O)N2Cc3ccccc3CC2C(=O)Nc2ccc(C)cc2C)cc1OC (stereo not given),"inconclusive: 29.1 µM [inhibitor, single point]",
CC1(C(=O)Nc2cccc3c2CCCC3)CCN1C(=O)c1cccc(F)c1 (stereo not given),"inconclusive: 29.1 µM [inhibitor, single point]",
CC(C)c1nc2sc3c(NCc4ccco4)ncnc3c2c2c1COC(C)(C)C2,active: 23.1 µM,
CC(=O)Nc1ccc(NC(=O)c2ccccc2N(C)S(=O)(=O)c2ccc(C)cc2)cc1,"inconclusive: 5.8 µM [inhibitor, single point]",
COc1ccc(-c2oc(=O)c3cc(OC)c(OC)cc3c2/C=C/c2ccc(F)cc2)cc1,"inconclusive: 29.1 µM [inhibitor, single point]",
CC(C)(C)c1ccc(O)c(O)c1,"inconclusive: 43.3 µM [inhibitor, single point] and inconclusive: 29.1 µM [inhibitor, single point]",
O=C(CSc1nnc(C2COc3ccccc3O2)o1)N1CCCc2ccccc21 (stereo not given),"inconclusive: 25.9 µM [inhibitor, single point]",
Cc1ccc(S(=O)(=O)N2CCC(C(=O)NCCC3=CCCCC3)CC2)cc1C,"inconclusive: 20.6 µM [inhibitor, single point]",
COc1ccc(C)cc1C1=CC(=O)C[C@H](c2ccc(F)cc2)C1,,inconclusive: -36.6% [inhibitor]
COc1ccc(-c2nn(-c3ccccc3)cc2C(=O)NCC(c2cccs2)N2CCOCC2)cc1 (stereo not given),"inconclusive: 23.1 µM [inhibitor, single point]",
O=C(CC1CCCC1)Nc1ccc(Cl)c(S(=O)(=O)N2CCOCC2)c1,active: 16.4 µM,
CC1CC(C)(C)CC2(C1)NC(=O)N(CC(=O)NCC(c1ccco1)N1CCCCC1)C2=O (stereo not given),"inconclusive: 16.4 µM [inhibitor, partial curve, poor fit]",
CC(C)(C)/C(O)=C/c1nc2cc(Cl)ccc2oc1=O,"inconclusive: 25.9 µM [inhibitor, single point]",
C/C(=N\NC(=O)c1ccc(F)cc1)c1ccccn1,active: 1.03 µM,
O=C(Nc1ccccc1)/C(=C/c1ccc(O)cc1)NC(=O)c1ccco1,,inactive: 4.36%
COc1ccccc1OC(C)C(=O)NNC(=S)NC1CCCC1 (stereo not given),,inactive: 7.21%
CN=c1sc2ccccc2n1CC(O)COc1ccccc1 (stereo not given),active: 18.4 µM,
C[C@@H]1CN([C@@H](C)CO)C(=O)c2cc(NC(=O)C3CC3)ccc2O[C@@H]1CN(C)Cc1ccc(Cl)c(Cl)c1,active: 23.1 µM,
CCCN(C(=O)c1cc(S(=O)(=O)N2CCCCC2)ccc1Cl)C1CCS(=O)(=O)C1 (stereo not given),"inconclusive: 20.6 µM [inhibitor, partial curve]",
C#CCSc1nsc(SCC#C)c1C#N,"inconclusive: 23.1 µM [inhibitor, single point]",
CC(=O)Nc1cccc(-c2csc(Nc3cccc(C)n3)n2)c1,"inconclusive: 35.5 µM [inhibitor, single point]",
COc1ccc(NC(=O)C2CCN(S(=O)(=O)c3cccc4nonc34)CC2)cc1OC,,inactive: -13.6%

SMILES,Potency,"activity change, negative = growth inhibition"
O=C(NNC(=O)c1ccccc1OCc1ccccc1)c1ccccc1O,active: 3.66 µM,
CCOc1ccc(NC(=O)CN(C)C(=O)CC2CC3CCC2C3)cc1OCC (stereo not given),,inactive: 0.986%
COc1ccc(/C=N/NC(=S)N[C@H]2CC3CCC2C3)cc1 (stereo not given in full),"inconclusive: 23.1 µM [inhibitor, single point]",
CCN1CCN(Cc2c(O)ccc3c(=O)c(-c4ccc(OC)c(OC)c4)c(C(F)(F)F)oc23)CC1,,inactive: -17.6%
CN1C(=O)C(CC(=O)NCCc2ccccc2)N(NC(=O)c2ccc(Cl)cc2)C1=S (stereo not given),"inconclusive: 29.1 µM [inhibitor, single point]",
CC(C)CN(CC(C)C)C(=O)CC(=O)NC(=O)c1ccc(Cl)cc1,,inactive: -8.42%
CCCCCCCCCCCCCCCC[n+]1ccc(CC(O)c2c(C)[nH]c3ccccc23)c2ccccc21 (stereo not given),active: 1.26 µM,
O=C(Nc1ccc(S(=O)(=O)N2CCCCC2)cc1)C1CCN(C(=O)c2ccco2)CC1,"inconclusive: 14.6 µM [inhibitor, partial curve]",
NS(=O)(=O)c1ccc(N=Cc2c(O)c3ccccc3oc2=O)cc1,,inactive: -19.6%
COc1cccc(CN(Cc2ccco2)c2cnc(S(C)(=O)=O)nc2C(=O)Nc2cccc(Cl)c2C)c1,"inconclusive: 8.2 µM [inhibitor, partial curve]",
O=C(/C=C/c1ccc(Cl)c([N+](=O)[O-])c1)Nc1ccc(N2CCCC2)cc1,"inconclusive: 29.1 µM [inhibitor, single point]",
Cn1c(SCC(=O)N2CCCc3ccccc32)ncc(C(=O)Nc2ccc(Cl)cc2)c1=O,,inactive: -19.5%
Cc1ccc(S(=O)(=O)N2CCN(CC(=O)Nc3ccc4c(c3)CCC4)CC2)cc1C,,inactive: -84%
O=C(Nc1nnc(-c2ccccc2)o1)Nc1ccc(F)cc1F,,inactive: -43.9%
Cc1ccc(S(=O)(=O)N2[C@@H](c3ccc(Br)cc3)C(C(=O)O)=C[C@H]2CC2CCCC2)cc1,,inactive: -12.9%
COc1ccc(NC(=O)Nc2cccs2)cc1Cl,active: 23.1 µM,
COCCNC(=O)/C(C#N)=C/c1c(N2CCCCCC2)nc2ccccn2c1=O,"inconclusive: 23.1 µM [inhibitor, single point]",
CCOC(=O)C1=C(C)Nc2sc(C(=O)c3ccc(Br)cc3)c(N)c2C1c1ccc(C(=O)OC)cc1 (stereo not given),"inconclusive: 29.1 µM [inhibitor, single point]",
CCCCOc1ccccc1Cn1c(=O)oc2ccc(C)cc21,"inconclusive: 16.4 µM [inhibitor, partial curve, poor fit]",
COc1ccc(-c2coc3c(C(=O)NC(C)C)cccc23)c(C)c1,"inconclusive: 29.1 µM [inhibitor, single point]",
CCc1nc2nc(C)cc(Nc3ccc(OC)cc3)n2n1,,inactive: -6.43%
O=S(=O)(Nc1nc2ccccc2nc1Nc1cccc(S(=O)(=O)N2CCCCC2)c1)c1ccccc1,active: 5.8 µM,
